From PubChem BioAssay AID1347073 (National Center for Advancing Translational Sciences (NCATS), 2019)
In all, about 45,000 compounds went through this assay and about 200 (0.44%) were called active. About 7% were inconclusive and are not listed. Calls come from the whole dose curve; as a rule, active = well fitted activation curve with a large enough effect; inconclusive = small, poorly fitted or top-dose-only effect; inactive = no such curve, though single readings can be large or run the other way. The list shows a part of the results.

Experiment: qHTS of TDP-43 Inhibitors: NCGC Sytravon Library Screen; note: 0% is about no effect; nearly all actives have a fitted effect of over 55% in size
Settings: yeast TDP-43 toxicity rescue, BacTiter-Glo growth, 24 h; series mostly up to 46.1 µM; growth rescue (activation): at the top concentration
Summary of the method: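 TDP-43-expressing yeast, pregrown in raffinose, seeded at OD600 0.02 in galactose medium with compound for 24 hr at 30 deg C. Growth read by BacTiter-Glo luminescence, so rescue of toxicity appears as activation.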

Structure (SMILES) | growth rescue (activation)
CC(=O)Nc1ccc(SCC(=O)OCC(=O)NC(=O)NC2CCCC2)cc1 | inactive: 2.94%
O=C(c1ccc(-c2cc3ccccc3oc2=O)cc1)N1CCN(c2ccc(Cl)cc2[N+](=O)[O-])CC1 | inactive: 16%
Cc1ccc(-c2nn3c(-c4ccc(C)cc4)nnc3c3ccccc23)cc1 | inactive: 1.84%
CN(C)CCCNc1ccc(S(N)(=O)=O)cc1[N+](=O)[O-] | inactive: 4.26%
COc1ccc(C(=O)N/C(=C\c2ccc3c(c2)OCO3)C(=O)N2CCOCC2)cc1 | inactive: 2.19%
CC(C)CNC(=O)c1cccc(NC(=O)COc2ccc([N+](=O)[O-])cc2)c1 | inactive: 3.52%
CN(c1ccccc1)S(=O)(=O)c1cccc(C(=O)OCC(=O)Nc2ccc(C(N)=O)cc2)c1 | inactive: -4.06%
O=C(Nc1ccc(NC(=O)c2cccs2)cc1)c1ccc2c(c1)OCO2 | inactive: 25.2%
Cc1ccc(C(O)c2ncc(-c3ccccc3F)[nH]2)cc1F (stereo unspecified) | inactive: 4.18%
COc1ccc(NC(=O)c2ccccc2)cc1NS(=O)(=O)c1ccc(F)cc1 | inactive: 18.8%
COc1ccccc1N(CC(=O)NC1CCCCC1C)S(=O)(=O)c1cccs1 (stereo unspecified) | inactive: 4.08%
O=C(CSc1ncccn1)Nc1cccc2ccccc12 | inactive: 24.4%
CCOc1cc(/C=N/NC(=O)c2ccc(-c3csc(Nc4ccc(C)cc4)n3)cc2)ccc1OCC(=O)O | inactive: 4.08%
Cc1c(C)[n+](=O)c(-c2ccc(Br)cc2)c(C)n1[O-] | inactive: -12.3%
O=C(Cn1cnc2ccccc21)Nc1ccc(SC(F)F)cc1 | inactive: 8.51%
COc1ccccc1Nc1c2c(nc3ccccc13)CCC2 | inactive: -22%
CCCN1C(=O)c2[nH]nc(-c3ccc(F)cc3)c2C1c1ccccn1 (stereo unspecified) | inactive: 9.45%
O=C(O)CC(Cc1ccccc1)C(=O)NCC12CC3CC(CC(C3)C1)C2 (stereo unspecified) | inactive: -12.3%
COc1ccccc1NC(=O)C1=C(C)NC(=O)NC1c1cccc(OC)c1OC (stereo unspecified) | inactive: -11.2%
COC(=O)c1cc(C(=O)NCc2ccccc2)c(=O)[nH]c1C | inactive: 9.72%
Cc1nc2sc(C(=O)Nc3ccccc3)c(N)c2c(C)c1[N+](=O)[O-] | inactive: -13.1%
CC(=O)Nc1ccc(NC(=O)C2CCCN(S(=O)(=O)c3ccc(-n4cnnn4)cc3)C2)cc1 (stereo unspecified) | inactive: 9.09%

Structure (SMILES) | growth rescue (activation)
Cc1ccc(C)c(N(CC(=O)NC2CCCCC2)C(=O)c2csnn2)c1 | inactive: 0.952%
Cc1ccc(NC(=O)c2ccc(Br)cc2)c(C(=O)c2ccccc2)c1 | inactive: 18.1%
O=C(CCN1C(=O)C2C3CCC(C3)C2C1=O)Nc1cccc(Cl)c1 (stereo unspecified) | inactive: -12.1%
C=C(C)c1cccc(C(C)(C)NC(=O)Nc2ccc(OC)nc2)c1 | inactive: -14.9%
CC1(C)C2CC=C(/C=N/NC(=O)c3ccccc3O)C1C2 (stereo unspecified) | inactive: 10.7%
NC(=O)CSc1nc2c(sc(=S)n2-c2ccccc2)c(=O)[nH]1 | inactive: 7.67%
COc1ccc(NC(=O)CN2C(=O)c3ccccc3S2(=O)=O)cc1S(=O)(=O)N1CCOCC1 | inactive: 14.8%
Cc1ccc(C(=O)CSc2nc(-c3ccccc3)cc(=O)[nH]2)cc1 | inactive: 4.38%
COc1ccc(N=C2NN=C(c3ccc4c(c3)OCCO4)CS2)cc1 | inactive: 19.6%
Cc1ccc(C)c(NC(=S)c2ccc3ccccc3n2)c1 | inactive: 22.2%
O=C(O)c1cc(NC(=O)c2ccccc2[N+](=O)[O-])ccc1O | inactive: -9.18%
CCCCN(C(=O)COc1ccc(NC(C)=O)cc1)C1CCS(=O)(=O)C1 (stereo unspecified) | inactive: -1.48%
O=C(NC(c1ccc(Cl)cc1)c1cnccn1)C1CCN(Cc2ccccc2)CC1 (stereo unspecified) | inactive: 6.26%
CCCC(=O)NC(=S)N1CCN(c2ccc([N+](=O)[O-])cc2)CC1 | inactive: 11.4%
COc1ccc(CNC(=O)CN(Cc2ccc(Cl)cc2)S(C)(=O)=O)cc1 | inactive: 10.3%
COc1cccc(-c2cnc(C(O)c3cc(F)cc(Cl)c3)[nH]2)c1 (stereo unspecified) | inactive: 12.9%
CC(NC(=O)Cn1nc(C(=O)O)c2ccccc2c1=O)C12CC3CC(CC(C3)C1)C2 (stereo unspecified) | inactive: 11.8%
CC(=O)c1ccc(N2CCN(C(=O)/C=C/c3cccs3)CC2)cc1 | inactive: 17.4%
Cc1c(C(=O)Nc2ccccc2)csc1-c1ccccc1 | inactive: 8.17%
CCC(C)NC(=O)COC(=O)c1ccccc1OCC(=O)Nc1ccc(Br)cc1 (stereo unspecified) | inactive: 5.25%
CC(C)CN1CCN(Cc2ccc(CN3CCCCC3)s2)CC1CCO (stereo unspecified) | inactive: 2.42%
Cc1ccc(N2C(=O)CC(Cn3nc(C)cc3C)C2=O)cc1 (stereo unspecified) | inactive: 17.5%

Structure (SMILES) | growth rescue (activation)
COc1cccc(N(CC(=O)Nc2cccnc2)S(C)(=O)=O)c1 | inactive: 1.99%
O=C(Nc1ccccc1)/C(=C\c1ccco1)NC(=O)c1ccco1 | inactive: 2%
CCN1CCN(CCNC(=O)c2ccc(/C=C3/Sc4ccccc4N(Cc4cccc(Cl)c4)C3=O)cc2)CC1 | inactive: -16%
O=C(CNC(=O)C1CCCCC1)Nc1ccccc1 | inactive: -1.4%
COc1ccccc1C(CC(=O)c1ccccc1)CC(=O)c1ccccc1 | inactive: 12%
CC(C)CCNC(=S)Nc1ccc([N+](=O)[O-])cc1 | inactive: -81.8%
CN(C)CC(CCC(CN(C)C)C(O)(c1ccccc1)c1ccccc1)C(O)(c1ccccc1)c1ccccc1 (stereo unspecified) | inactive: 0.27%
O=C(NC1CCCCCC1)C(=O)NC1CCCC1 | inactive: 0.983%
COc1ccc(CNC(=O)CN2C(=O)NC3(CCCCCCC3)C2=O)cc1 | inactive: 4.02%
O=C(Nc1nc2c(s1)CCCC2)c1cc(-c2ccccc2)nc2ccccc12 | inactive: 31.5%
CCn1nc(C)c(CNC(=O)CC2C(=O)NCCN2CC(C)C)c1C (stereo unspecified) | inactive: 8.51%
COc1ccccc1CNC(=O)C1CCC(CNS(=O)(=O)c2ccc(F)cc2)CC1 (stereo unspecified) | inactive: -5.22%
COCCCn1c(=O)c2sccc2n2c(CCCC(=O)N(C)Cc3ccco3)nnc12 | inactive: 6.55%
CC1(C)CC(CCN)(Cc2ccccc2Cl)CCO1 (stereo unspecified) | inactive: 12.8%
O=C(O)c1cc(O)ccc1NC(=O)c1cccc2ccccc12 | inactive: 24.8%
O=C(CS(=O)CC(=O)Nc1ccccc1-c1ccccc1)Nc1ccc(F)cc1 (stereo unspecified) | inactive: -2.02%
Cc1cccc(CN2CCCC(C(=O)Nc3ccc(-c4cscn4)cc3)C2)c1 (stereo unspecified) | inactive: -6.15%
CCNC(=O)C1(C)CCN1CCS(=O)(=O)c1ccc(C)cc1 (stereo unspecified) | inactive: -5.14%
c1ccc(CCNc2cc(-c3ccc4ccccc4c3)nc3ccnn23)nc1 | inactive: 17%
COc1ccccc1N1CCN(C(=O)c2cc(S(=O)(=O)N3CCOCC3)ccc2C)CC1 | inactive: 32.4%
CCOc1ccc(NS(=O)(=O)c2cc(NC(=O)CCS(=O)(=O)c3ccc(C)cc3)ccc2OC)cc1 | inactive: 25.7%
CC(=O)Nc1cc(-c2ccc(C(=O)NC3CC3)cc2)cn2c(-c3cccc(C(F)(F)F)c3)cnc12 | inactive: 13.1%
